# Assay results taken from the supplement of paper PMC9446081.
# About 220 (0.56%) of roughly 39,000 compounds showed activity. The list shows a part of the results.
# Test system: Escherichia coli K-12 BW25113
# Test: relative growth (OD600 normalised to plate interquartile mean) (fraction); higher = less growth inhibition, active = 0.2 or less
# Conditions: 50 µM; LB; incubation time: overnight (16-24 h)
# 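Also: static incubation at 37 °C against the wild-type strain, values averaged over two biological replicates.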
row,SMILES,relative growth
1,CCC(=O)Nn1c(C)nnc1C,inactive: 1.01
2,COc1ccc(C(=O)Nc2ccc(CN3C(=O)[C@]4(O[C@H](CC(=O)N5Cc6ccccc6C[C@H]5CO)[C@@H]([Si](C)(C)c5ccc(OC)cc5)[C@@H]4C)c4ccccc43)cc2)cc1,inactive: 1.08
3,C[C@@H]1CN([C@@H](C)CO)C(=O)c2cc(NC(=O)CCCCCC(=O)Nc3ccccc3N)ccc2O[C@H]1CN(C)C(=O)Nc1ccccc1,inactive: 1.02
4,C=CCC[C@@H](Cc1ccc(F)cc1)C(=O)OC[C@H]1CCCN1C(=O)[C@H](CC=C)CC(=O)N(CCO)Cc1ccccc1,inactive: 1.05
5,COC(=O)CCn1cc(F)c(N)nc1=O,inactive: 0.948
6,COCC(=O)Nc1ccc2c(c1)OC[C@@H](C)N(C(=O)Cc1ccccn1)C[C@@H](C)[C@H](OC)CN(C)C2=O,inactive: 0.997
7,COCCOC(=O)N1C(=O)[C@@]2(c3cc(C#CC4(O)CCCCCC4)ccc31)[C@H](c1ccc(OCCO)cc1)N1[C@H](c3ccccc3)[C@H](c3ccccc3)OC(=O)[C@H]1[C@@H]2C(=O)N1CCCCCCC1,inactive: 1.04
8,Cc1noc(C)c1S(=O)(=O)N(C)C[C@@H]1OCc2cnnn2CCCC(=O)N([C@@H](C)CO)C[C@@H]1C,inactive: 0.977
9,O=C(O)[C@@H]1C2C=CC3(O2)C1C(=O)N1CCS[C@H]13 (stereo partly specified),inactive: 0.999
10,CS(=O)(=O)N1C[C@@H](O)COC[C@H]2O[C@@H](CC(=O)NCc3ccccc3)CC[C@@H]21,inactive: 0.993
11,COCC(=O)N(C)C[C@H]1Oc2cc(C#Cc3ccccc3)ccc2S(=O)(=O)N([C@H](C)CO)C[C@H]1C,inactive: 0.902
12,COc1ccc(S(=O)(=O)N(C)C[C@@H]2Oc3ccc(NS(=O)(=O)c4cn(C)cn4)cc3C(=O)N([C@@H](C)CO)C[C@@H]2C)cc1,inactive: 1.01
13,O=C(CCCCCCC(=O)Nc1ccc([C@H]2O[C@@H](COc3ccccc3)C[C@H](c3ccccc3)O2)cc1)NO,inactive: 0.988
14,C[C@@H]1CCCCO[C@H](CN(C)Cc2ccccc2)[C@H](C)CN([C@H](C)CO)C(=O)c2cc(NC(=O)c3ccncc3)ccc2O1,inactive: 0.977
15,C[C@@H]1CCCCO[C@@H](CN(C)Cc2ccc(C(=O)O)cc2)[C@@H](C)CN([C@H](C)CO)C(=O)c2cc(NS(=O)(=O)c3ccc(Cl)cc3)ccc2O1,inactive: 1.01
16,C[C@@H]1CCCCO[C@@H](CN(C)C(=O)C2CCCCC2)[C@H](C)CN([C@@H](C)CO)C(=O)c2cc(NC(=O)Nc3ccc(C(F)(F)F)cc3)ccc2O1,inactive: 1.08
